This sample is rich in variants without activity.
B1: TPR 5TU (parent)
chain: GGAUCUUCUCGAUCUAACAAAAAAGACAAAUCUGCCACAAAGCUUGAGAGCAUCUUCGGAUGCAGAGGCGGCAGCCUUCGGUGGCGCGAUAGCGCCAACGUUCUCAACUAUGACACGCAAAACGCGUGCUCCGUUGAAUGGAGUUUAUCAUG

Variants of: B1
Test: polymerase ribozyme fitness, log enrichment relative to wild type (log ratio); higher = more active; in vitro selection for triplet polymerase activity
Procedure, shortened: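 Fitness compares each genotype's enrichment to that of the wild type on a logarithmic scale, averaging replicates with inverse-variance weights. The logarithm is base 2. Enrichment came from Illumina sequencing of input and output libraries after one triplicate round of in vitro selection, which included frozen incubation at −7 °C, of PCR-built, transcribed mutant libraries of each subunit of a heterodimeric triplet polymerase ribozyme. Only genotypes with ≥10 input reads and ≥1 read per output were kept.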

Row | Variant | polymerase ribozyme fitness (log ratio)
1 | C32G G42C U53A A66C U78C A91U C105U G112U C114G | ≤ -4.2
2 | A30U C69U G83A | ≤ -4.2
3 | U31A G68A A73G C96U G152C | ≤ -4.2
4 | C32A C114A A137G | ≤ -4.2
5 | C32A A52U C63A A64U G74U A137C | ≤ -4.2
6 | C32G A41C C57U U146C C149A | ≤ -4.2
7 | A30G G46A A107U | -4.03
8 | A30C C96U A138C | ≤ -4.2
9 | U33A C38U C87A | ≤ -4.2
10 | A30U C43G | ≤ -4.2
11 | A29U U45A G70A C85G | ≤ -4.2
12 | A30U A52G U56G G80C G84U A98C A110U | ≤ -4.2
13 | C32G G88A A110G A122U | ≤ -4.2
14 | C32U C116G U135A G140C | ≤ -4.2
15 | C32U G88A U145G | ≤ -4.2
16 | A30G A49G G74A G86U G143U | ≤ -4.2
17 | A30G C95U | -3.14
18 | C32G A91C C95G C116U | ≤ -4.2
19 | A30C C79G C85A A91C | ≤ -4.2
20 | U31C C72U G86U C129G | ≤ -4.2
21 | A30U G58C C76A G94C U104G G136A | ≤ -4.2

Row | Variant | polymerase ribozyme fitness (log ratio)
22 | A30U C75G G80C A91C A107U G136U | ≤ -4.2
23 | U31A G81C C96G U111A G126A | ≤ -4.2
24 | U33A A49C C51U A110G C123U | ≤ -4.2
25 | U31G G59U C69A U134G G136U | -3.84
26 | U33A A39G U90A U130A | ≤ -4.2
27 | U31G G62C G88C A119G | ≤ -4.2
28 | A30U G46U G88A A89U G94U C95A U104G U135C U144A | ≤ -4.2
29 | U31A G67C U127C | ≤ -4.2
30 | U31G C63A U77C C131G C149U U151G | ≤ -4.2
31 | C32A G68A U77A C108A | ≤ -4.2
32 | C32G G48A A52G A121U G133C | ≤ -4.2
33 | U31C C43U G92C C108U G143U | ≤ -4.2
34 | A30U U45A A49C G68A U78A A97G G117U | ≤ -4.2
35 | C32G A49G G50C G67A G88A A106G G126U U130A G133U | ≤ -4.2
36 | C32U C36A U55G C93G G133U G141U | -4.01
37 | A30C C32U C96G | ≤ -4.2
38 | A29U G71A C93G | ≤ -4.2
39 | C32A U55A C76U A89G G92U A119G | ≤ -4.2
40 | C32U C43U C93U C95G C99G C114G C118G C149G A150U | ≤ -4.2
41 | C32G A52U C99G | ≤ -4.2
42 | C32G G80C C95U A113G G128A | ≤ -4.2

Row | Variant | polymerase ribozyme fitness (log ratio)
43 | C32A A39U C125U U144G | ≤ -4.2
44 | A30U C51A C76U G88U C96G A115G U144C | ≤ -4.2
45 | U31A A37C A47U C116U U127G U144G U151G | ≤ -4.2
46 | U31A A60C G62U C75U U78C G83A G143A | ≤ -4.2
47 | A29U U61G G117U U148A | ≤ -4.2
48 | A30C C87G C114U A119G A142U A147U | ≤ -4.2
49 | C32G U78C G84A G140U U144C U145A | ≤ -4.2
50 | U33A C85U A106G G126A A138C | ≤ -4.2
51 | U31C C43U G92C A137U G140U | ≤ -4.2
52 | A30C C51A U55A G81C A138G G141C | ≤ -4.2
53 | A30C U53A G84A | ≤ -4.2
54 | C32U A41U | -3.95
55 | C32A C35U A60C G62A C114U | ≤ -4.2
56 | A30U G81U C93A C129G | ≤ -4.2
57 | U31A G46U A52G U55A U78G G100U | ≤ -4.2
58 | C32U C85U | -1.97
59 | U31C C54A C93G | ≤ -4.2
60 | U31G A40U A91U | ≤ -4.2
61 | U31C A66G G86C C108G U127A A138G | ≤ -4.2
62 | C32G A49C A142U | ≤ -4.2
63 | U31A C57U A91U A97U G141A | ≤ -4.2

Row | Variant | polymerase ribozyme fitness (log ratio)
64 | C32A U33G A66G G83A U102G C118G G124C G141C G143U | ≤ -4.2
65 | C32G C87G G133U U144G | ≤ -4.2
66 | C32G C51A C87A G152A | ≤ -4.2
67 | U31G A41U C43A C72U G92U A137G U145G | ≤ -4.2
68 | C32A U61A U78A G86U | ≤ -4.2
69 | A30U A41C C87G G133U A138C | ≤ -4.2
70 | A30C G50C U55G C79U C103A G136C A142C G143C C149U | ≤ -4.2
71 | U31A G48C A60G C72U C95G A121C U148A | ≤ -4.2
72 | A30U C32G A73U C93G C99G A137U A147U | ≤ -4.2
73 | U31G A37C C38A G70C U78A C79U C132U | ≤ -4.2
74 | A30U A41G C87U C125A A147U | ≤ -4.2
75 | C32U A39U U55G G88A A107U G124U A142C U148G | ≤ -4.2
76 | U31G C54U C95U C125A U139C | ≤ -4.2
77 | U33A A49C A91G G92U C125U | ≤ -4.2
78 | U33A A40U C95A G124U U134C U139C G143A | ≤ -4.2
79 | C32A U53A A66G U78G | ≤ -4.2
80 | A30C G50C G67U G86U C105U G126U | ≤ -4.2
81 | A30U C38U A52C A66C C96U | ≤ -4.2
82 | A30U G83C U90G | ≤ -4.2
83 | A30U C35U G68U A120U | ≤ -4.2
